Data published in PubChem BioAssay AID540317 (National Center for Advancing Translational Sciences (NCATS), 2011).
Among all 390,000 compounds or so, about 2,200 (0.56%) were called active. The inconclusive results got no clear call from the source; some entries with a clear call stand among them for comparison. The call rests on the fitted dose curve; in most records, active means well fitted inhibition curve with a large enough effect; inconclusive means small, poorly fitted or top-dose-only effect; inactive means no such curve, though single readings can be large or run the other way. Potencies beside an inconclusive call are fits to weak or partial responses and may not hold up.

Each compound was assayed against Chromobox protein homolog 1 (Homo sapiens) (UniProt P83916) (assay: HTS for Inhibitors of HP1-beta Chromodomain Interactions with Methylated Histone Tails). Details: AlphaScreen HP1-beta / biotin-H3K9me3 peptide binding; series mostly up to 114 µM; activity change, negative = inhibition: at the top concentration.
UniProt P83916, sequence (P83916 whole entry, looked up): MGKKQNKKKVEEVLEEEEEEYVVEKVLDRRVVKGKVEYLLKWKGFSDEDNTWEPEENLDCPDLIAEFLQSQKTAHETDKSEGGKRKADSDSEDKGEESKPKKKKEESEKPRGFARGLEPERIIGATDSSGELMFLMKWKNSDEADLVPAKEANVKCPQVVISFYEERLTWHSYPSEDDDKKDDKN
How it was run: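 HP1-beta protein (50 nM final) preincubated 30 min at room temperature with biotinylated H3(1-18)K9me3 peptide (50 nM) in PBS pH 7.4, 0.01% Tween-20, then compound added for 30 min. AlphaScreen streptavidin donor/nickel chelate acceptor beads (10 ug/mL final), 30 min dark, luminescence read.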
Further: nearly all actives have a fitted effect of over 70% in size.
Potency means the concentration at half of the fitted maximal effect; tags describe the fitted curve by direction and shape.

| Compound | activity change, negative = inhibition | Potency |
| --- | --- | --- |
| CCn1c(SCC(=O)Nc2cc(Cl)ccc2OC)nnc1C1CC1 | inactive: 18% |  |
| Cc1ccc2nc(N(CCCN(C)C)C(=O)c3ccc(S(=O)(=O)N4CCc5ccccc5C4)cc3)sc2c1 |  | inconclusive: 50.1 µM [inhibitor, partial curve] |
| CCOc1ccc(-n2c(SCC(=O)NCC3CCCO3)nc3c([nH]c4ccccc43)c2=O)cc1 (configuration not stated) | inactive: 8.03% [at 57 µM] |  |
| COc1ccccc1N1CCN(c2ccc([N+](=O)[O-])cc2Cl)CC1 |  | inconclusive: 22.4 µM [inhibitor, single point] |
| N/C(Cc1ccc([N+](=O)[O-])cc1)=N\OC(=O)c1ccc([N+](=O)[O-])cc1 |  | inconclusive: 20 µM [inhibitor, full curve] |
| C=CCc1ccc(OCCN2CCc3ccccc3C2)c(OC)c1 |  | inconclusive: 15.8 µM [inhibitor, full curve, poor fit] |
| O=C(O)c1cccnc1SCc1cn2cc(Br)ccc2n1 | inactive: 4.52% |  |
| CC1Cc2cc(/C(O)=C3/C(=O)C(=O)N(CCCn4ccnc4)C3c3ccncc3)ccc2O1 (configuration not stated) | inactive: 32.5% |  |
| COc1ccc(NC(=O)CSc2nnc(-c3ccco3)n2N)cc1Cl | inactive: 64.1% |  |
| CC1(C)Cc2ccccc2C(N/N=C/c2ccc(Cl)cc2)=N1 |  | inconclusive: 25.1 µM [inhibitor, single point] |
| CC(C)c1nc(N2CCN(C(=O)c3ccco3)CC2)c(C#N)c2c1COC(C)(C)C2 |  | inconclusive: 44.7 µM [inhibitor, partial curve, poor fit] |
| COCCSc1nnc(NS(=O)(=O)c2ccccc2)s1 | inactive: 26% |  |
| COc1cccc(CN(C)C(=O)CCNC(=O)c2ccco2)c1 | inactive: 26.7% |  |
| O=C(NC(NNc1ccc([N+](=O)[O-])cc1)(C(F)(F)F)C(F)(F)F)c1ccc(F)cc1 |  | inconclusive: 39.8 µM [inhibitor, single point] |
| CN(C)CCCCOc1ccc(F)cc1 |  | inconclusive: 50.1 µM [inhibitor, partial curve, poor fit] |
| COc1ccc(CCNc2nc(-c3ccc(F)cc3)c(CC(=O)O)s2)cc1OC |  | inconclusive: 7.08 µM [inhibitor, full curve] |
| COc1cc(OC)c(OC)cc1CNCCNC(=O)c1ccco1 |  | inconclusive: 70.8 µM [inhibitor, partial curve] |
| N=C1/C(=C\c2ccc(-c3cccc(Cl)c3)o2)C(=O)N=C2SC=C(c3ccccc3)N12 |  | inconclusive: 44.7 µM [inhibitor, partial curve] |
| CC(C)(C)C(=O)Nc1ccc(C(=O)CSc2nnc(C3CC3)n2C2CC2)cc1 | inactive: 30.7% |  |
| c1ccc(Nc2ccccn2)cc1 |  | inconclusive: 39.8 µM [inhibitor, single point] |
| O=C(NC(=S)N1CCOCC1)c1ccccc1Cl | inactive: 30.2% |  |
| CSc1ccc(S(=O)(=O)N2CCC(C(=O)Nc3ccc(NC(C)=O)cc3)CC2)cc1 | inactive: 12% |  |
| Cc1sc(N/N=C/c2ccco2)nc1-c1ccccc1 | inactive: -19.6% |  |
| CCOc1ccc(OCCCCn2ccnc2)cc1 |  | inconclusive: 22.4 µM [inhibitor, full curve, poor fit] |

| Compound | activity change, negative = inhibition | Potency |
| --- | --- | --- |
| Cc1cccc(Cn2c(C)nc3c(N)c(C)c(C)cc32)c1 |  | inconclusive: 39.8 µM [inhibitor, partial curve, poor fit] |
| O=C(Cn1cc(S(=O)(=O)c2ccc(F)cc2)c(=O)c2cc3c(cc21)OCO3)Nc1ccccc1 | inactive: 12.6% |  |
| CC(C)(c1ccccc1)c1ccc(OCCN2CCCC2)cc1 |  | inconclusive: 35.5 µM [inhibitor, partial curve] |
| COc1cc(/C=N/N2CCN(Cc3ccc(Cl)cc3)CC2)ccc1OC(C)=O |  | inconclusive: 35.5 µM [inhibitor, partial curve, poor fit] |
| COc1ccc(OC)c(CN2CCC(C(=O)N3CCN(c4ccccc4F)CC3)CC2)c1 |  | inconclusive: 15.8 µM [inhibitor, full curve, poor fit] |
| Cc1ccccc1-c1nc2c(c(SCc3cccc(Cl)c3)n1)Cc1c(CO)cnc(C)c1O2 | inactive: 25.9% |  |
| Cc1cccc(C)c1N=Nc1c(C)cc(O)cc1C |  | inconclusive: 50.1 µM [inhibitor, partial curve, poor fit] |
| COc1ccccc1N1CCN(C2=Nc3cccc4cccc2c34)CC1 |  | inconclusive: 50.1 µM [inhibitor, partial curve] |
| C=CC1=C2C=C(C3CC3)N(CCCN(CC)CC)C=C2C(=O)C(C)(OC(=O)c2ccco2)C1=O (configuration not stated) | inactive: 38% |  |
| COCCNCCCOc1ccc(Cl)cc1Br |  | inconclusive: 44.7 µM [inhibitor, partial curve] |
| N#Cc1cc(Sc2ccccn2)c(Sc2ccccn2)cc1C#N | inactive: 14.2% |  |
| COc1cccc(OC)c1C(=O)OCCCOC(=O)c1c(OC)cccc1OC | inactive: 4.99% |  |
| O=S(=O)(NCc1ccc(F)cc1)c1ccc2[nH]c3c(c2c1)CCCCC3 |  | inconclusive: 56.2 µM [inhibitor, single point] |
| O=C(CN1CCCC1)NC12CC3CC(CC(C3)C1)C2 | inactive: 18.4% |  |
| Oc1ccccc1N1CCN(CC(O)COCc2ccccc2Cl)CC1 (configuration not stated) |  | inconclusive: 17.8 µM [inhibitor, full curve] |
| COc1ccc(NC2=C(NCCO)C(=O)c3ccccc3C2=O)cc1 |  | active: 15.8 µM |
| Cc1ccc(S(=O)(=O)N(CC(=O)N/N=C/c2ccccc2C(=O)O)c2cc(Cl)cc(Cl)c2)cc1 | inactive: 25.5% |  |
| CS(=O)(=O)Nc1cccc(-c2cn3c(n2)SCC3)c1 |  | inconclusive: 25.1 µM [inhibitor, full curve] |
| COc1ccc(CN2CCN(Cc3ccc(C)cc3)CC2)c(OC)c1 |  | inconclusive: 17.8 µM [inhibitor, full curve] |
| Cc1[nH]c2ccccc2c1C(=O)CSc1ccc(Cl)cc1 |  | inconclusive: 8.91 µM [inhibitor, partial curve, poor fit] |
| CC1CCCN(C(=S)Nc2ccc(Nc3ccccc3)cc2)C1 (configuration not stated) |  | inconclusive: 15.8 µM [inhibitor, partial curve, poor fit] |
| CN(C)/C=C/C(=O)c1ccc2noc(-c3ccc(F)cc3)c2c1 |  | inconclusive: 79.4 µM [inhibitor, single point] |
| O=C(CN1C(=O)S/C(=C\C=C\c2ccccc2)C1=O)Nc1ccc(C(=O)O)cc1 |  | inconclusive: 44.7 µM [inhibitor, partial curve, poor fit] |
| COc1ccc(/C=C2\CN(Cc3ccccc3)C/C(=C\c3ccc(OC)c(O)c3)C2=O)cc1O |  | inconclusive: 15.8 µM [inhibitor, full curve] |

| Compound | activity change, negative = inhibition | Potency |
| --- | --- | --- |
| Cc1ccc(C)c(N2CCN(C(=O)c3ccc(CSc4nc5ccncc5[nH]4)cc3)CC2)c1 |  | inconclusive: 20 µM [inhibitor, partial curve, poor fit] |
| COc1ccccc1NC(=S)NCCSc1ccc(C)cc1 |  | inconclusive: 79.4 µM [inhibitor, partial curve] |
| O=C(CCCSc1nc2ccccc2[nH]1)NCc1ccccc1Cl |  | inconclusive: 39.8 µM [inhibitor, single point] |
| O=S(=O)(O)c1cc(O)c2c(O)c(N=Nc3cc(Cl)ccc3O)c(S(=O)(=O)O)cc2c1 |  | active: 20 µM |
| O=[N+]([O-])c1ccc(N=Nc2ccc(O)c3ccccc23)cc1 |  | active: 7.94 µM |
| CCN(CC)CCN(C(=O)c1ccc(Br)s1)c1nc2cc3c(cc2s1)OCCO3 | inactive: 35.7% |  |
| Cc1ccnc(NC(=O)COc2ccc3c(c2)CCC3)c1 | inactive: 53.4% |  |
| CCOc1cc(/C=C/C(=O)O)ccc1OCCO | inactive: 4.08% |  |
| CCOC(=O)N(C)OC(=O)Nc1ccc(Cl)c(Cl)c1 |  | inconclusive: 50.1 µM [inhibitor, partial curve, poor fit] |
| Cc1ccc(S(=O)(=O)N/N=C/c2cccc([N+](=O)[O-])c2)cc1 | inactive: 32.1% |  |
| CCN(CC)c1ccc(-c2nc3cnccn3c2NC2CCCC2)cc1 |  | inconclusive: 70.8 µM [inhibitor, partial curve, poor fit] |
| COc1cccc(CSc2nc3cc(OC)c(OC)cc3c3nc(CCn4nc(C)cc4C)nn23)c1 | inactive: 48.8% |  |
| O=C(NCCNC(=O)c1ccccc1[N+](=O)[O-])c1ccccc1[N+](=O)[O-] | inactive: 25% |  |
| O=C1CC(c2ccccc2)=NN1c1ccc([N+](=O)[O-])cc1 |  | inconclusive: 56.2 µM [inhibitor, single point] |
| Fc1ccccc1C1c2[nH]c3ccccc3c2CCN1Cc1cccn1-c1ncccn1 (configuration not stated) |  | inconclusive: 31.6 µM [inhibitor, partial curve] |
| O=C(CN1CCN(c2ccc(O)cc2)CC1)Nc1ccc(-c2ccccc2)cc1 |  | active: 79.4 µM |
| COc1ccc2c(c1)c(=O)oc1cc(O)ccc12 | inactive: 19.6% |  |
| C=CCN1C(=O)/C(=C\C(C)=C\c2ccccc2)SC1=S |  | inconclusive: 14.1 µM [inhibitor, full curve] |
| C(=C\c1ccccc1)/C=N/N1CCN(Cc2ccccc2)CC1 |  | inconclusive: 50.1 µM [inhibitor, partial curve] |
| O=C(c1ccco1)N1CCN(c2nc(C3CC3)nc3c2nnn3Cc2ccccc2Cl)CC1 |  | inconclusive: 17.8 µM [inhibitor, full curve] |
| CCCOC(=O)c1c(N)sc2c1CCC2 |  | inconclusive: 35.5 µM [inhibitor, single point] |
| Clc1ccc(OCCCNCc2ccccc2)c2ccccc12 |  | inconclusive: 15.8 µM [inhibitor, partial curve] |
| COc1ccc(N2CCN(C3=CC(=O)N(c4cccc(Cl)c4)C3=O)CC2)cc1 |  | inconclusive: 31.6 µM [inhibitor, partial curve] |
| CCN(CC)S(=O)(=O)c1ccc(NC(=O)Cc2cccs2)cc1 |  | inconclusive: 22.4 µM [inhibitor, full curve, poor fit] |
